From PubChem BioAssay AID504339 (National Center for Advancing Translational Sciences (NCATS), 2011)
Screen size: about 390,000 compounds; about 17,000 (4.4%) were called active. Inconclusive means that the source gave no clear call. Such entries were picked first, then a sample of the others. The call rests on the fitted dose curve; in most records, active means well fitted inhibition curve with a large enough effect; inconclusive means small, poorly fitted or top-dose-only effect; inactive means no such curve, though single readings can be large or run the other way. A potency beside an inconclusive call is a rough fit, not a confirmed value.

These compounds were tested against Lysine-specific demethylase 4A (Homo sapiens) (UniProt O75164) (assay: qHTS Assay for Inhibitors of JMJD2A-Tudor Domain). Conditions: AlphaScreen JMJD2A-Tudor / H3K4me3 peptide binding; activity change, negative = inhibition: at 114 µM (top of the series).
Further: nearly all actives have a fitted effect of over 50% in size.
On the % scale 0 is the no-effect control and ±100 the full control effect; potency means the concentration at half of the fitted maximal effect; tags describe the fitted curve by direction and shape.

UniProt O75164, sequence (O75164 whole entry, looked up, the tested form may be a part): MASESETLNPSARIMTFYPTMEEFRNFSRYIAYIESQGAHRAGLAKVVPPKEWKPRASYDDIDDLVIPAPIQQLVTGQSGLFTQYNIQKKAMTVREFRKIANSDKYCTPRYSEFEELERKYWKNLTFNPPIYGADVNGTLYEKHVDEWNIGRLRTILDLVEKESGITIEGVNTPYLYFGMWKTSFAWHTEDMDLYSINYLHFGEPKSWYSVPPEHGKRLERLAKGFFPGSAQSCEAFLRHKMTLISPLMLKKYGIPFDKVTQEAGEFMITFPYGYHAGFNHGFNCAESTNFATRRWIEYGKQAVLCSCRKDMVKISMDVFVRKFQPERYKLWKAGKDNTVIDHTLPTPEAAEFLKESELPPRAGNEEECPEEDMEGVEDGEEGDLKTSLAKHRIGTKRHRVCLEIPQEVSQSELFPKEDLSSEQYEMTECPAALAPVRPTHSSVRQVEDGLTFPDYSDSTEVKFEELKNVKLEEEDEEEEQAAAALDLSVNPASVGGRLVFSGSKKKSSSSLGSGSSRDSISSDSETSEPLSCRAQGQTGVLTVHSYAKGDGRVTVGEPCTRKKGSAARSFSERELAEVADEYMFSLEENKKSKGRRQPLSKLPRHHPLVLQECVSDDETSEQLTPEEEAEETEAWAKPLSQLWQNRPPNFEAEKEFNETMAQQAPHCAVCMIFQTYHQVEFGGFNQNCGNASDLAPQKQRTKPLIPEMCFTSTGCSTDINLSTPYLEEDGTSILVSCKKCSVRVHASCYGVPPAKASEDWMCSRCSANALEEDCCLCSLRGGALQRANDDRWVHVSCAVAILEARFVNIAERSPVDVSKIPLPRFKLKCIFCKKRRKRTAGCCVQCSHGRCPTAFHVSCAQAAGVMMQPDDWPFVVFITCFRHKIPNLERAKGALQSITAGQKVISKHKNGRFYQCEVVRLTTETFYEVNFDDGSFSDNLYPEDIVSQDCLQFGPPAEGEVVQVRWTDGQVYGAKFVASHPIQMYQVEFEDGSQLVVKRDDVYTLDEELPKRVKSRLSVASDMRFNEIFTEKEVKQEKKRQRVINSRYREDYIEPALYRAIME

Row | SMILES | Potency | activity change, negative = inhibition
1 | COc1cc(NC(=S)NCCc2c[nH]c3ccccc23)c(OC)cc1Cl | inconclusive: 31.6 µM [inhibitor, single point] | 
2 | COc1cc(OC)c(S(=O)(=O)Nc2ccccc2C(=O)O)cc1S(=O)(=O)Nc1ccccc1C(=O)O | inconclusive: 100 µM [inhibitor, single point] | 
3 | CCOC(=O)CC(=O)CSc1ccc2nnc(-c3cccc(F)c3)n2n1 |  | inactive: -1.32%
4 | O=C(COC(=O)C1(c2ccc(F)cc2)CCCC1)NCc1ccco1 | active: 50.1 µM | 
5 | COC(=O)c1cc(OC)c(OC)cc1NC(=O)Nc1ccc(OC)cc1OC | inconclusive: 100 µM [inhibitor, partial curve, poor fit] | 
6 | COc1ccc(/C=C(\C#N)c2nc3ccccc3[nH]2)cc1O | inconclusive: 89.1 µM [inhibitor, partial curve] | 
7 | COC(=O)CC(=O)CSc1nc2c(cc1C#N)CCC2 | inconclusive: 89.1 µM [inhibitor, partial curve] | 
8 | Cc1oc(C(=O)O)cc1CSCc1ccoc1C(=O)O | inconclusive: 89.1 µM [inhibitor, single point] | 
9 | Cn1nnc(NC(=O)c2ccc([N+](=O)[O-])cc2Cl)n1 | inconclusive: 56.2 µM [inhibitor, partial curve, poor fit] | 
10 | O=C(CSc1nc2nc(-c3cccs3)cc(C(F)(F)F)c2c(=O)[nH]1)Nc1ccc(F)c(F)c1 | inconclusive: 14.1 µM [inhibitor, partial curve, poor fit] | 
11 | O=C1C(Cl)=C(NCCc2ccccc2)C(=O)c2ccccc21 | active: 0.794 µM | 
12 | CC(C)CN(C(=O)COC(=O)c1ccccn1)c1c(N)n(Cc2ccccc2)c(=O)[nH]c1=O | active: 6.31 µM | 
13 | NNC1=N[C@H]2CS(=O)(=O)C[C@H]2S1 | active: 8.91 µM | 
14 | CC(OCC(O)CNCC1COc2ccccc2O1)c1ccc(Cl)cc1 (stereo not drawn) | active: 2.24 µM | 
15 | COc1ccc(/C=C\C(=O)NCc2ccc3[nH]c(C)cc3c2)cc1OC | inconclusive: 56.2 µM [inhibitor, partial curve] | 
16 | Cc1ccc(CN2CCSc3ccc(C(=O)NCCCN4CCN(C)CC4)cc32)cc1 | inconclusive: 50.1 µM [inhibitor, partial curve] | 
17 | CCN1CCc2nc3sc(C(=O)c4ccccc4)c(N)c3cc2C1 | inconclusive: 56.2 µM [inhibitor, partial curve] | 
18 | N#Cc1nc(COc2ccccc2Cl)oc1NCc1ccc(F)cc1 | inconclusive: 50.1 µM [inhibitor, partial curve] | 
19 | COC(=O)C1=C(C(=O)OC)[C@@H]2N(C)c3ccc(OC)cc3[C@@]23C[C@@H](C(=O)OC)N(C(=O)NC2CCCCC2)C3=N1 | inconclusive: 14.1 µM [inhibitor, full curve] | 
20 | CCOC(=O)c1nnn2c1nc(N1CCN(c3ccccc3)CC1)c1ccccc12 | inconclusive: 44.7 µM [inhibitor, partial curve] | 
21 | O=C(CSc1nc(Nc2ccccc2)nc(N2CCOCC2)n1)Nc1cccc([N+](=O)[O-])c1 | inconclusive: 20 µM [inhibitor, full curve] | 
22 | COc1ccc(OCC(O)CNC(=O)c2ccccc2C(=O)O)cc1 (stereo not drawn) | inconclusive: 89.1 µM [inhibitor, single point] | 

Row | SMILES | Potency | activity change, negative = inhibition
23 | COc1cccc2c(N/N=C/c3ccc(O)c(O)c3)cc(C)nc12 | inconclusive: 50.1 µM [inhibitor, partial curve] | 
24 | Cc1ccc(NC(=O)CSc2nc(-c3ccc(C(C)(C)C)cc3)nc3cc(=O)[nH]n23)cc1C |  | inactive: -1.3%
25 | COc1ccc(NC(=O)CSc2ccc3nnc(-c4ccccn4)n3n2)cc1OC | inconclusive: 70.8 µM [inhibitor, partial curve] | 
26 | COc1cccc(C2c3c(ncn(-c4ccc(C)cc4)c3=N)Oc3ccc4ccccc4c32)c1 (stereo not drawn) | inconclusive: 39.8 µM [inhibitor, full curve] | 
27 | COC(=O)C1=C(O)/C(=C\c2ccc(OCC(=O)Nc3ccccc3OC)cc2)N=C1C | inconclusive: 15.8 µM [inhibitor, full curve] | 
28 | COCCNC(=O)c1ccc2c(c1)N(Cc1cc(C)ccc1C)C(=O)c1ccccc1S2(=O)=O |  | inactive: -29%
29 | CCSc1ncc(Cl)c(C(=O)N(Cc2ccc(N(C)C)cc2)Cc2ccco2)n1 | active: 17.8 µM | 
30 | O=C(NC1CCCCC1)C1(S(=O)(=O)c2ccc(Cl)cc2)CC1 |  | inactive: 1.4%
31 | CCc1nnc(NC(=O)C2CCC2)s1 |  | inactive: -15%
32 | CCCCC(=O)NC(c1ccc(OC)c(OC)c1)c1c(O)ccc2ccccc12 (stereo not drawn) | inconclusive: 56.2 µM [inhibitor, partial curve, poor fit] | 
33 | CCCn1c(C2CCCN2c2nc(-c3cccc(Br)c3)cs2)nc2cc(Cl)c(Cl)cc21 (stereo not drawn) | inconclusive: 70.8 µM [inhibitor, partial curve, poor fit] | 
34 | COc1ccc(N(CCCN2C(=O)c3cccc4cccc(c34)C2=O)C(=O)c2ccncc2)cc1 | inconclusive: 5.01 µM [inhibitor, partial curve] | 
35 | CCOC(=O)c1ccc(N2CCOCC2)c(NC(=O)c2nccnc2C(=O)O)c1 | inconclusive: 50.1 µM [inhibitor, partial curve] | 
36 | O=C(NCc1ccncc1)C12CC3CC(CC(C3)C1)C2 |  | inactive: -15.4%
37 | Nc1nnc(C(=O)c2ccccc2N)s1 |  | inactive: -16.7%
38 | CSc1nc(-c2ccc(Cl)cc2)nn1S(=O)(=O)c1ccccc1 | inconclusive: 100 µM [inhibitor, single point] | 
39 | CCOc1cc(/C=C2/NC(=O)NC2=O)cc(Br)c1OCc1ccc(C(=O)O)cc1 | inconclusive: 31.6 µM [inhibitor, full curve] | 
40 | CCOC(=O)c1c(NC(=O)CSc2nnc(-c3cccc(C)c3)n2CC)sc(C(C)=O)c1C | inconclusive: 89.1 µM [inhibitor, single point] | 
41 | Nc1ccc(/C=C/C(=O)c2ccco2)cc1 |  | inactive: -9.94%
42 | O=C(N/N=C/c1ccccn1)c1ccc(Br)cc1 | inconclusive: 100 µM [inhibitor, partial curve] | 
43 | COc1ccc([C@H]2CC(=O)C=C(/C=C/c3ccccc3)C2)cc1OC | inconclusive: 22.4 µM [inhibitor, full curve] | 
